Where “and” joins values, the source holds several entries; their conditions need not be identical. Identical values can stand only once.
Biological target: T1, KDM4A F185A (asKDM4A) in HEK293T cells (Homo sapiens, UniProt O75164, F185A)
T1 construct: we generated the F185A mutation in full-length KDM4A carrying all of the functional domains; host or cells: HEK293T
T1 sequence (O75164 1-1064 F185A): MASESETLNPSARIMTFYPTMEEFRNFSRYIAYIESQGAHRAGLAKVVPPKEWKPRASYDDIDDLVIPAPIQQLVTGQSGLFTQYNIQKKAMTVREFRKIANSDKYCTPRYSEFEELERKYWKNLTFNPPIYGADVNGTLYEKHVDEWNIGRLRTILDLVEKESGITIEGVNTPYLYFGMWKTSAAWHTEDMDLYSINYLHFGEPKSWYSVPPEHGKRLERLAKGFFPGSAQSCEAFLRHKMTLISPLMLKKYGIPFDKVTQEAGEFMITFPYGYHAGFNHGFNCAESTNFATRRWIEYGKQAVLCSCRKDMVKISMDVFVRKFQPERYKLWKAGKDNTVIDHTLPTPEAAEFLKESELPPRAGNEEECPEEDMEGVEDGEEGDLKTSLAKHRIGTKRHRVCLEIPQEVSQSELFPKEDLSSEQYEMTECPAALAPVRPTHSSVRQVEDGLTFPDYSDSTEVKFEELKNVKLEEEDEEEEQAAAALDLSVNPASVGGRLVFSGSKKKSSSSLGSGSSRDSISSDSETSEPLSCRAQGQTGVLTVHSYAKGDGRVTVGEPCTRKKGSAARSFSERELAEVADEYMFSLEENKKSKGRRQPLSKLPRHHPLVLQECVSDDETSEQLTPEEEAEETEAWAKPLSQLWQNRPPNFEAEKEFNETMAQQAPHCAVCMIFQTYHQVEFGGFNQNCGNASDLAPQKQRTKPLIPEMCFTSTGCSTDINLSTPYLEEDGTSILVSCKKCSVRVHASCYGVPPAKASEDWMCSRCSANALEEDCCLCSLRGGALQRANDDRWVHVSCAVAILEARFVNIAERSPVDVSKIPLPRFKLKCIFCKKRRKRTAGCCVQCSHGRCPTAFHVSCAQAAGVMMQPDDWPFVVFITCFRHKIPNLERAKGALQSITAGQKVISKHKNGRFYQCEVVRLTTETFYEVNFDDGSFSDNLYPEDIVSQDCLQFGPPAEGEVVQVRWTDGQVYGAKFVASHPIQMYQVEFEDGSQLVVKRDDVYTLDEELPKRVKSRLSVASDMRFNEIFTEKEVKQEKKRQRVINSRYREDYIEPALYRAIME
Test: Histone extraction, digestion and tandem mass spectrometry (relative abundance of histone modifications)
Format: cell-based
Protocol: HEK293T cells were transiently transfected with asKDM4A and treated with varying concentrations of 6A or 6B. […] To further confirm the activity of the enzyme–inhibitor pair, we performed tandem mass spectrometry of tryptic histones isolated from HEK293T cells expressing asKDM4A in the presence or absence of 100 μM 6A. […]
22. Histone extraction, digestion and tandem mass spectrometry
HEK 293-T cells (ATCC CRL-1573) were plated into 6-well plates (Corning) in DMEM (Corning) supplemented with 10% FBS (Corning) and 1X Antibiotic/Antimycin
(Penicillin/Streptomycin/Fungiozone) (Cytiva HyClone) in an incubator held at 37 °C with 5%
CO2. At 75% confluency, cells were transfected with 2.5 µg KDM4A F185A or Empty Vector with 5µg Thermo Turbofect (FERR0531). After 4 hours, the media was washed and 200 µM of 6A or equivalent volume of DMSO was added and left to incubate at 37 °C for 24 hours. Cells were then washed with 1X PBS (Corning) followed by trypsinization (Gibco TrypLE™ Express Enzyme). Collected cells were centrifuged at 3000xg for 3 minutes, followed by washing with 1X PBS and centrifuged for an additional 3000xg for 3 minutes. Histone proteins were extracted from the pellet as described by25 to ensure good-quality identification and quantification of single histone marks. Briefly, cell pellets were dissolved in 100 µL of cold 0.2 M H2SO4 and incubated for 2 hours rotating in a cold room (4 °C). Aliquots were then centrifuged at 3400xg for 5 minutes […]
at 4 °C and the supernatant was added to a fresh tube. 100% cold TCA was then added to a final volume of 33% volume/volume TCA/supernatant and left to incubate for 1 hour in a cold room (4 °C). Samples were then centrifuged at 3400xg for 5 min at 4 °C and the supernatant was discarded. The precipitate was then washed with cold acetone/0.1% HCl and centrifuged at 3400xg for 5 minutes at 4 °C. The supernatant was discarded, and the precipitate was washed with cold acetone and centrifuged at 3400xg for 5 minutes at 4 °C. The supernatant was discarded, and the pellet was dried using a vacuum centrifuge.
The pellet was dissolved in 50 mM ammonium bicarbonate, pH 8.0, and histones were subjected to derivatization using 5 µL of propionic anhydride and 14 µL of ammonium hydroxide (all Sigma Aldrich) to balance the pH at 8.0. The mixture was incubated for 15 min and the procedure was repeated. Histones were then digested with 1 µg of sequencing grade trypsin (Promega) diluted in 50mM ammonium bicarbonate (1:20, enzyme:sample) overnight at room temperature.
Derivatization reaction was repeated to derivatize peptide N-termini. The samples were dried in a […]
Sample desalting: Prior to mass spectrometry analysis, samples were desalted using a 96-well plate filter (Orochem) packed with 1 mg of Oasis HLB C-18 resin (Waters). Briefly, the samples were resuspended in 100 µl of 0.1% TFA and loaded onto the HLB resin, which was previously equilibrated using 100 µl of the same buffer. After washing with 100 µl of 0.1% TFA, the samples were eluted with a buffer containing 70 µl of 60% acetonitrile and 0.1% TFA and then dried in a […]
LC-MS/MS Acquisition and Analysis: Samples were resuspended in 10 µl of 0.1% TFA and loaded onto a Dionex RSLC […] (Thermo Scientific), coupled online with an Orbitrap Fusion Lumos (Thermo Scientific). Chromatographic separation was performed with a two-column system, consisting of a C-18 trap cartridge (300 µm ID, 5 mm length) and a picofrit analytical column (75 µm ID, 25 cm length) packed in-house with reversed-phase Repro-Sil Pur C18-AQ 3 µm resin. Peptides were separated using a 30 min gradient from 1-30% buffer B (buffer A: 0.1% formic acid, buffer B: 80% acetonitrile + 0.1% formic acid) at a flow rate of 300 nl/min.
The mass spectrometer was set to acquire spectra in a data-independent acquisition (DIA) mode.

[1] = peptide AGGKAGKDSGKAKAKAVSR, F185A cells treated with NOL, replicates _1, _2
[2] = peptide AGGKAGKDSGKAKTKAVSR, F185A cells treated with NOL, replicates _1, _2
[3] = peptide AGGKAGKDSGKAKTKAVSR, F185A cells treated with NOL, replicates _1, _2, listed as NOL
[4] = peptide AKAKSR, F185A cells treated with NOL, replicates _1, _2, listed as NOL
[5] = peptide AKAKTR, F185A cells treated with NOL, replicates _1, _2, listed as NOL
[6] = peptide GKGGKGLGKGGAKR(H4_4_17), NOL sample, replicates _1 and _2, listed as NOL
[7] = peptide GKQGGKAR(H2A1_4_11), NOL sample, replicates _1 and _2, listed as NOL
[8] = peptide GKQGGKVR(H2AJ_4_11), NOL sample, replicates _1 and _2, listed as NOL
[9] = peptide GKTGGKAR(H2AX_4_11), NOL sample, replicates _1 and _2, listed as NOL
[10] = peptide KGNYAER(H2A1_36_42), NOL sample, replicates _1 and _2, listed as NOL
[11] = peptide KQLATKAAR(H3_18_26), NOL-treated samples, replicates _1 and _2, listed as NOL

CC(C)CC(NC(=O)C(=O)O)C(=O)O (stereo not drawn) [compound 6, N-oxalyl leucine]
Ratio H2AV_1_19 unmod (peptide AGGKAGKDSGKAKAKAVSR(H2AV_1_19), NOL sample, replicates _1 and _2, listed as NOL): 0.9128 and 0.9779 | Ratio H2AV_1_19 K4acK7ac [1]: 0 | Ratio H2AV_1_19 K4acK11ac [1]: 0 | Ratio H2AV_1_19 K4acK11acK15ac [1]: 0 | Ratio H2AV_1_19 K4acK15ac [1]: 0 | Ratio H2AV_1_19 K4acK7acK11acK15ac (peptide AGGKAGKDSGKAKAKAVSR, F185A cells treated with NOL, replicates _1, _2, listed as NOL): 0.04673 and 0.01678 | Ratio H2AZ_1_19 K4acK7acK11ac [2]: 0 | Ratio H2AZ_1_19 K4acK11acK15ac [2]: 0 | Ratio H2AZ_1_19 K7acK11ac [2]: 0 | Ratio H2AZ_1_19 K4acK7acK11acK15ac [3]: 0.009939 and 0.006407 | Ratio H2AZ_1_19 K15ac [3]: 0.005028 and 0.007978 | Ratio H2AZ_1_19 unmod [3]: 0.845 and 0.955 | Ratio H2A3_12_17 K13me1 [4]: 0.1111 and 0.1568 | Ratio H2A3_12_17 K15me1 [4]: 0.7248 and 0.5722 | Ratio H2A3_12_17 unmod [4]: 0.1632 and 0.2648 | Ratio H2A1_12_17 K13me1 [5]: 0.01837 and 0.05049 | Ratio H2A1_12_17 K15ac [5]: 0.1518 and 0.3249 | Ratio H2A1_12_17 K15me1 [5]: 0.04835 and 0.1097 | Ratio H2A1_12_17 unmod [5]: 0.7807 and 0.5068 | Ratio H2A1_72_77 unmod (peptide DNKKTR, F185A cells treated with NOL, replicates _1, _2, listed as NOL): 0.9998 and 0.9973 | Ratio H3_73_83 K79ac (peptide EIAQDFKTDLR(H3_73_83), NOL sample, replicates _1 and _2): 0 | Ratio H4_4_17 K5ac [6]: 0.01296 and 0.02123 | Ratio H4_4_17 K8ac [6]: 0.01341 and 0.01356 | Ratio H4_4_17 K8acK12ac [6]: 0.002106 and 0.005789 | Ratio H4_4_17 K8acK16ac [6]: 0.01508 and 0.03871 | Ratio H4_4_17 K12ac [6]: 0.02796 and 0.04243 | Ratio H4_4_17 K12acK16ac [6]: 0.0334 and 0.07469 | Ratio H4_4_17 K16ac [6]: 0.2415 and 0.244 | Ratio H4_4_17 unmod [6]: 0.6133 and 0.3722 | Ratio H2A1_4_11 K5ac [7]: 0.0321 and 0.05065 | Ratio H2A1_4_11 K9ac [7]: 0.008867 and 0.01172 | Ratio H2A1_4_11 unmod [7]: 0.9518 and 0.8008 | Ratio H2AJ_4_11 K5acK9ac [8]: 0.8976 and 0.6715 | Ratio H2AJ_4_11 K5me1 [8]: 0.02733 and 0.05547 | Ratio H2AJ_4_11 K9me1 [8]: 0.0314 and 0.05184 | Ratio H2AJ_4_11 unmod [8]: 0.03735 and 0.1097 | Ratio H2AX_4_11 K5me1 [9]: 0.2972 and 0.3508 | Ratio H2AX_4_11 K9me1 [9]: 0.6095 and 0.2975 | Ratio H2A_82_88 unmod (peptide HLQLAIR, F185A cells treated with NOL, replicates _1, _2): 1 | Ratio H2AX_36_42 unmod (peptide KGHYAER(H2AX_36_42), NOL sample, replicates _1 and _2, listed as NOL): 0.9999 and 0.9911 | Ratio H2A1_36_42 K36ac [10]: 0.00048 and 0.000169 | Ratio H2A1_36_42 unmod [10]: 0.9995 and 0.9998 | Ratio H2A3_36_42 unmod (peptide KGNYSER(H2A3_36_42), NOL sample, replicates _1 and _2, listed as NOL): 0.9972 and 0.9999 | Ratio H3_18_26 K18me1K23me1 (peptide KQLATKAAR(H3_18_26), NOL-treated samples, replicates _1 and _2): 0 | Ratio H3_18_26 K18ac [11]: 0.002488 and 0.003404 | Ratio H3_18_26 K18acK23ac [11]: 0.006469 and 0.003158 | Ratio H3_18_26 K23ac [11]: 0.506 and 0.4403 | Ratio H3_18_26 unmod [11]: 0.485 and 0.5531

Reference: PMC11783601, “Analogue-Sensitive Inhibition of Histone Demethylases Uncovers Member-Specific Function in Ribosomal Protein Synthesis” (Journal of the American Chemical Society, 2025)
